According to PubChem BioAssay AID588342 (National Center for Advancing Translational Sciences (NCATS), 2011):
Screen size: about 360,000 compounds; about 25,000 (6.9%) were called active. The inconclusive results got no clear call from the source; some entries with a clear call stand among them for comparison. Calls come from the whole dose curve; as a rule, active = well fitted inhibition curve with a large enough effect; inconclusive = small, poorly fitted or top-dose-only effect; inactive = flat fitted curve, though single readings scatter. A potency beside an inconclusive call is a rough fit, not a confirmed value.

target: Luciferin 4-monooxygenase (Photinus pyralis) (UniProt P08659); test: qHTS profiling assay for firefly luciferase inhibitor/activator using purifed enzyme and Km concentrations of substrates (counterscreen for miR-21 project); conditions: purified FLuc, luminescence inhibition; series mostly up to 57.5 µM; activity change, negative = inhibition: at the top concentration; note: nearly all actives have a fitted effect of over 55% in size;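 for activity change, negative = inhibition: plate controls were vehicle for no effect and reference inhibitor for full effect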
Chain of UniProt P08659 (P08659 whole entry, looked up): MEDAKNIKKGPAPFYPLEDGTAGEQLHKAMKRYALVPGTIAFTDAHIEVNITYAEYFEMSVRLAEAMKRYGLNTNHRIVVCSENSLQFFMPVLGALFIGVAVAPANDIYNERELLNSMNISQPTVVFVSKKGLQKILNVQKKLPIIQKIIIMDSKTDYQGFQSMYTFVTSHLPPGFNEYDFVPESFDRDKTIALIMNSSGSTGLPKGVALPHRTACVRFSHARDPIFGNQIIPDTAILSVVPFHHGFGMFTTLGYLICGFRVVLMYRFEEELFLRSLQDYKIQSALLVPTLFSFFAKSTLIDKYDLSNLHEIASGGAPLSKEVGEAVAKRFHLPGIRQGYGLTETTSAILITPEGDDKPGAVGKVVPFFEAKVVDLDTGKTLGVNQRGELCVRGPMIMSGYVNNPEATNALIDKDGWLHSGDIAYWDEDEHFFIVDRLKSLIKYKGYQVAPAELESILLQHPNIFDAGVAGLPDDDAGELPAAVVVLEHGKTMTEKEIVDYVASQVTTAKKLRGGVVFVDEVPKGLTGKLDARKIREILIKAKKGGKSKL
Summary of the method: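 Purified P. pyralis luciferase (10nM final) with 10uM D-luciferin and 10uM ATP (Km levels) in 50mM Tris acetate pH 7.5, 10mM Mg acetate, 0.01% Tween-20, 0.05% BSA; qHTS 6-point titration, ~60 µM downward; luminescence read.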
Potency is the fitted concentration of half-maximal effect; tags give direction and shape of the fitted curve.

| SMILES | Potency | activity change, negative = inhibition |
| --- | --- | --- |
| CCOC(=O)c1cc(-c2ccc(Cl)s2)[nH]n1 | inconclusive: 26.9 µM [inhibitor, single point] |  |
| O=C(NCc1ccccn1)c1ccc2nc(-c3ccco3)c(-c3ccco3)nc2c1 | inconclusive: 26.9 µM [inhibitor, single point] |  |
| O=C(Cc1ccccc1)NNC(=O)c1ccc(NC(=O)c2ccccc2)cc1 |  | inactive: 3.65% |
| CC(NCc1ccc(OCc2ccc(Cl)cc2)cc1)C(O)c1ccccc1 (stereo not given) | inconclusive: 23.9 µM [inhibitor, single point] |  |
| CCc1ccccc1NC(=O)C1CCC(CNS(=O)(=O)c2ccc3c(c2)CC(C)N3C(C)=O)CC1 (stereo not given) |  | inactive: 4.45% |
| CCOc1ccc(-c2nnc(SCC(=O)NCCC(C)C)nc2-c2ccc(OCC)c(OC)c2)cc1OC |  | inactive: -3.91% |
| CCN1C(=O)c2cccc3c(NC(=O)c4cccc(N5C(=O)CCC5=O)c4)ccc1c23 |  | inactive: -7.06% |
| CCOC(=O)c1c(C)[nH]c2cc(Br)c(O)cc12 | inconclusive: 19 µM [inhibitor, partial curve, poor fit] |  |
| O=C(N/N=C/c1cc([N+](=O)[O-])ccc1O)c1cc(-c2ccccc2)nc2ccccc12 | inconclusive: 26.9 µM [inhibitor, single point] |  |
| CCc1nnc(NC(=O)C2(C)COC(c3ccc(OC)cc3)OC2)s1 (stereo not given) |  | inactive: -2.73% |
| COc1ccc(CNC(=O)Cc2csc3ccccc23)cc1OC | inconclusive: 26.9 µM [inhibitor, single point] |  |
| Cc1nn(-c2ccccc2)c(Cl)c1/C=C(\C#N)C(=O)NC(C)C | inconclusive: 37.9 µM [inhibitor, partial curve, poor fit] |  |
| COc1ccccc1CNc1ncnc2c1cnn2-c1ccccc1 | inconclusive: 26.9 µM [inhibitor, single point] |  |
| O=C(CSC1CCCCC1)N1CCN(c2ccccc2)CC1 | inconclusive: 37.9 µM [inhibitor, partial curve, poor fit] |  |
| O=c1c(-c2n[nH]c(=S)n2-c2ccccc2)cccn1Cc1cccc(Cl)c1 | inconclusive: 37.9 µM [inhibitor, partial curve, poor fit] |  |
| Cc1ccc(-c2n[nH]c(=S)n2/N=C/c2cc3c(cc2[N+](=O)[O-])OCO3)cc1 | inconclusive: 21.3 µM [inhibitor, partial curve, poor fit] |  |
| COC(=O)\C(C(C)=O)=C(/C=C/C=C/C=C/N(C)C)N(C)C | inconclusive: 37.9 µM [inhibitor, partial curve, poor fit] |  |
| N#Cc1c(NC(=O)c2ccccc2)sc2c1CCCCC2 | inconclusive: 0.536 µM [inhibitor, full curve, poor fit] |  |
| COc1ccccc1NC(=O)Cc1c(C(=O)O)[nH]c2ccc(Cl)cc12 | inconclusive: 19 µM [inhibitor, partial curve] |  |
| O=c1[nH]c(N/N=C/c2ccccc2)nc2ccccc12 | active: 6.01 µM |  |
| Cc1cccc(NC(=O)CSc2nc3ccc(NC(=O)c4ccco4)cc3s2)c1 | inconclusive: 10.7 µM [inhibitor, partial curve] |  |
| Cn1c(-c2ccc3ccccc3n2)[n+](C)c2ccccc21 | active: 21.3 µM |  |
| O=C(Nc1ccc(NC(=O)C2CC2)cc1)c1cccs1 | active: 13.5 µM |  |
| COC(=O)c1cccc(Nc2c(-c3ccc(O)c(OC)c3)nc3nc[nH]n23)c1 | inconclusive: 26.9 µM [inhibitor, partial curve, poor fit] |  |

| SMILES | Potency | activity change, negative = inhibition |
| --- | --- | --- |
| CCCCOC(=O)COc1ccc(Cl)cc1Cl | inconclusive: 33.8 µM [inhibitor, single point] |  |
| CN(C)S(=O)(=O)NCCNc1ccc(C(F)(F)F)cc1[N+](=O)[O-] | active: 19 µM |  |
| CCOC(=O)c1cnc(SC2CCc3ccccc3C2=O)nc1N (stereo not given) | inconclusive: 33.8 µM [inhibitor, single point] |  |
| COCc1cc(C)nc2sc3c(c12)NC(c1ccc(O)cc1)N(c1ccc(OC)cc1)C3=O (stereo not given) | inconclusive: 37.9 µM [inhibitor, partial curve, poor fit] |  |
| Cc1nc2cc(-c3ccccc3)nn2c(C)c1CCC(=O)N1CCN(c2ccccn2)CC1 | inconclusive: 13.5 µM [inhibitor, partial curve] |  |
| O=C(O)C1CSC(c2ccc3c(c2)OCO3)N1 (stereo not given) | inconclusive: 19 µM [inhibitor, partial curve] |  |
| Cc1ccc(NC(=O)COC(=O)/C=C/c2ccccc2)cc1S(=O)(=O)N1CCOCC1 | inconclusive: 23.9 µM [inhibitor, partial curve, poor fit] |  |
| COc1ccccc1N1CCN(C(CNC(=O)C(=O)NCCCN(C)C)c2cccnc2)CC1 (stereo not given) |  | inactive: -1.37% |
| CCOC(=O)C1=C(CS(=O)(=O)c2c(C)cc(C)cc2C)NC(=O)NC1c1cccc(OC)c1 (stereo not given) |  | inactive: -1.76% |
| Cc1nc(C)c(C(=O)N/N=C/c2c[nH]c3ccccc23)s1 | inconclusive: 13.5 µM [inhibitor, partial curve, poor fit] |  |
| O=C(c1ccco1)[C@@H]1[C@@H]2C(=O)N(c3ccc(Br)cc3)C(=O)[C@@H]2C2c3ccccc3C=CN21 (stereo not given in full) | inconclusive: 21.3 µM [inhibitor, partial curve, poor fit] |  |
| O=C(O)c1cc([N+](=O)[O-])cc2c1nnn2O | inconclusive: 15.1 µM [inhibitor, partial curve] |  |
| CC(C)Cn1c(SCC(=O)c2ccc(Cl)s2)nnc1-c1ccco1 | inconclusive: 23.9 µM [inhibitor, partial curve, poor fit] |  |
| Cc1ccn(C(=O)c2ccc(NC(=O)C3CCCCC3)cc2)n1 | inconclusive: 33.8 µM [inhibitor, partial curve, poor fit] |  |
| O=C(COC(=O)C1CC1)Nc1ccc(N=Nc2ccccc2)cc1 | inconclusive: 10.7 µM [inhibitor, partial curve] |  |
| O=C1CC(c2ccccc2C(F)(F)F)c2c(c3ccccc3[nH]c2=O)O1 (stereo not given) |  | inactive: -1.83% |
| Cc1ccc2nc(-c3ccc(O)cc3)c(Nc3ccc4c(c3)OCO4)n2c1 | inconclusive: 37.9 µM [inhibitor, single point] |  |
| CCCC(NS(=O)(=O)c1ccc(-c2ccc(=O)[nH]n2)s1)c1cccs1 (stereo not given) | inconclusive: 26.9 µM [inhibitor, single point] |  |
| COc1cc(-c2nnc(SCC(=O)Nc3ccc(F)c(Cl)c3)o2)cc(OC)c1OC |  | inactive: -1.49% |
| COc1ccc(NC(=O)CSc2n[nH]c(CNc3cccc(C)c3)n2)cc1 | inconclusive: 23.9 µM [inhibitor, single point] |  |
| COC(CNC(=O)c1ccc(N2CCc3ccccc32)c([N+](=O)[O-])c1)OC | inconclusive: 26.9 µM [inhibitor, partial curve, poor fit] |  |
| Cc1cc2nc(-c3cc(NC(=O)c4cc5ccccc5o4)ccc3Cl)oc2cc1C | inconclusive: 3.38 µM [inhibitor, full curve] |  |
| N/C(=N\OC(=O)Cc1cccs1)c1ccccc1 | active: 15.1 µM |  |
| Cc1oc(-c2ccc(Cl)cc2)nc1CS(=O)CC(=O)NCc1ccc(Cl)cc1 (stereo not given) |  | inactive: -0.83% |

| SMILES | Potency | activity change, negative = inhibition |
| --- | --- | --- |
| CCCCCC(=O)N(O)C1CC(=O)N(c2ccccc2)C1=O (stereo not given) | inconclusive: 23.9 µM [inhibitor, single point] |  |
| Cc1cccc(OCc2nc3ccccc3c(=O)n2N)c1 | active: 16.9 µM |  |
| Cc1ccc(OCCSc2ncccn2)c(C)c1 | active: 2.13 µM |  |
| O=C(CSc1ccccn1)NCc1ccc2c(c1)OCO2 | inconclusive: 37.9 µM [inhibitor, partial curve, poor fit] |  |
| Cc1ccc(C(=O)N(Cc2ccc(N(C)C)cc2)Cc2ccco2)cc1 | inconclusive: 16.9 µM [inhibitor, partial curve, poor fit] |  |
| O=C(COC(=O)c1ccc[nH]c1=O)c1ccc(Cl)s1 | active: 15.1 µM |  |
| NNC(=O)c1ccc2nc(-c3ccc(Br)cc3)cn2c1 | active: 9.53 µM |  |
| O=C(NCCc1ccc(Cl)cc1)c1ccc(CS(=O)Cc2cccc(Cl)c2)o1 (stereo not given) | inconclusive: 26.9 µM [inhibitor, partial curve, poor fit] |  |
| C=CCCC(=O)Nc1nc(C)c(-c2csc(Nc3ccc(Cl)cc3Cl)n2)s1 | active: 26.9 µM |  |
| COC(=O)c1n[nH]n(-c2ccccc2)c1=O |  | inactive: 6.68% |
| Cc1ccn2c(Nc3ccc4c(c3)OCCO4)c(-c3ccc(Cl)s3)nc2c1 | active: 6.01 µM |  |
| O=C(N/N=C/c1cccnc1)c1sc2ccccc2c1Cl | active: 19 µM |  |
| CC(C)NC(=O)COC(=O)c1ccc(S(=O)(=O)N2CCCC2)cc1 |  | inactive: 1.06% |
| CN(C)c1cccc(C(=O)NNC(=O)/C=C/c2cccs2)c1 | inconclusive: 21.3 µM [inhibitor, partial curve, poor fit] |  |
| O=C(Nc1ccc(N2CCCCC2)cc1)c1ccccc1 | active: 1.9 µM |  |
| CN(C)c1c2ccccc2nc2c(F)c(F)c(F)c(F)c12 |  | inactive: 1.97% |
| S=c1[nH]nc(-c2ccncc2)n1/N=C/c1cn(-c2ccccc2)nc1-c1ccccc1 | active: 2.69 µM |  |
| COC(=O)c1ccc(SCc2cnc(Cl)s2)cc1 | inconclusive: 26.9 µM [inhibitor, single point] |  |
| CS(=O)(=O)Nc1ccc(-c2cn3cccnc3n2)cc1 | inconclusive: 30.1 µM [inhibitor, single point] |  |
| COc1ccccc1/C=C/C=N/n1c(-c2cc(-c3ccccc3)n[nH]2)n[nH]c1=S | active: 5.36 µM |  |
| COc1ccc(OC)c(N/C(C)=C/C(=O)c2ccc(C)o2)c1 | inconclusive: 19 µM [inhibitor, single point] |  |
| Cc1ccc(CC(=O)Nc2ccc(Cl)cn2)cc1 | inconclusive: 19 µM [inhibitor, partial curve] |  |
